The text below walks through data of article PMC10668032.

Some of the results follow. At the low end of the ranking, values are background and their order means little.

The assay concerns the target SIX1 homeodomain (reference allele) (UniProt Q15475). The assay is described as follows: universal protein binding microarray. The settings on record: Universal all-10-mer PBM (8x60K, AMADID 030236), 300 nM GST-tagged protein, Alexa Fluor 488 anti-GST; buffer, salt, pH and temperature not stated; high values mean tight binding; most listed sequences are background and not binding sites; double strand, one strand shown.
Turning to GCGTACCC, the binding signal was 0.136 E-score.

With GGGAAATA, the binding signal came to 0.102 E-score.

As to CTCAGGAC, the binding signal came to 0.0375 E-score.

CGCCGGGA: the binding signal came to 0.0669 E-score.

In the case of ATCGAAGC, the binding signal was found to be 0.0975 E-score.

For CCCTTAGA, the binding signal came to 0.0579 E-score.

For the sequence AAGTTGAT, the binding signal came to 0.122 E-score.

Turning to GTACCTAC, the binding signal was -0.23 E-score.

For the sequence CAAATTAG, the binding signal was -0.227 E-score.

With CGATTACA, the binding signal was 0.0821 E-score.

Consider CCCCCAGG, for which the binding signal came out at 0.158 E-score.

In the case of AATTCAGT, the binding signal was -0.11 E-score.

Take CTAGGCTC: the binding signal was -0.0798 E-score.

Take CGGCGAGC: the binding signal was -0.0282 E-score.

On to CTAACGAA, for which the binding signal was -0.152 E-score.

In the case of CTCAAACA, the binding signal was -0.128 E-score.

Turning to AGGTGCCA, the binding signal was 0.00385 E-score.

As for GTACAGAA, the binding signal was -0.0664 E-score.

For CACTTCGC, the binding signal was -0.164 E-score.

On to CGTTCTGA, for which the binding signal is -0.2 E-score.

As for AGGCGTGA, the binding signal is -0.031 E-score.

Turning to AGTTCTAT, the binding signal was found to be 0.034 E-score.

Consider ACCTATGC, for which the binding signal worked out at 0.00953 E-score.

Regarding GTACTGAA, the binding signal is -0.0539 E-score.

Take ATTCAGAG: the binding signal amounted to 0.0153 E-score.

Consider AGGGTCTG, for which the binding signal was -0.0871 E-score.

Regarding CGCGGAAA, the binding signal was -0.129 E-score.

Turning to AGTTGCTA, the binding signal was -0.0653 E-score.

GCCTTGAA: the binding signal is -0.222 E-score.

In the case of TAGTTAGA, the binding signal is 0.0126 E-score.

In the case of CGGAACCA, the binding signal is -0.116 E-score.

GTTAGGTA: the binding signal worked out at 0.15 E-score.

GCGGGAAC: the binding signal is -0.173 E-score.

On to AAGATCTC, for which the binding signal stood at 0.198 E-score.

As to CTATAATA, the binding signal is 0.259 E-score.

As for CCACCCGA, the binding signal stood at 0.121 E-score.

GGCTATTA: the binding signal was found to be 0.0818 E-score.

In the case of AGCAGGCC, the binding signal was -0.264 E-score.

With GGAAGCCC, the binding signal was 0.0155 E-score.

For the sequence GGCCGGGA, the binding signal was 0.0104 E-score.

As for AACTTCCG, the binding signal is -0.172 E-score.

Turning to CCTCATCC, the binding signal is -0.0701 E-score.

Turning to CCAATTTA, the binding signal was -0.0104 E-score.

On to GCAGCCCA, for which the binding signal was -0.106 E-score.

As to CGCCGTAC, the binding signal stood at 0.0141 E-score.

On to ATTAGCAC, for which the binding signal is -0.11 E-score.

Take CCCGAGAC: the binding signal turned out to be 0.252 E-score.

In the case of CCAAATGG, the binding signal was -0.0617 E-score.

In the case of GCTTTCCC, the binding signal is -0.202 E-score.

ACAGTCTA: the binding signal was -0.0471 E-score.

Consider CAAAATCG, for which the binding signal is -0.155 E-score.

On to GGAGCACA, for which the binding signal was found to be 0.0657 E-score.

For the sequence ACGCTACC, the binding signal is -0.217 E-score.

AAAGTTTC: the binding signal is -0.289 E-score.

Take TCGACCCA: the binding signal is -0.0638 E-score.

With AGCTATTC, the binding signal is -0.0164 E-score.

With CGCCCGAC, the binding signal stood at 0.0241 E-score.

With ACTCTACC, the binding signal is -0.0292 E-score.

On to CATCCTCG, for which the binding signal was determined as 0.00693 E-score.

In the case of AAGCGAAC, the binding signal is -0.242 E-score.

For the sequence ATACTCTG, the binding signal is 0.354 E-score.

In the case of AGAGAAGC, the binding signal is -0.278 E-score.

As for AAGCAGTG, the binding signal was -0.113 E-score.

Consider GCTGGCAA, for which the binding signal is -0.209 E-score.

As to CAACAGGC, the binding signal is -0.297 E-score.

GTGACTAA: the binding signal was -0.0841 E-score.

With CTGTTAGA, the binding signal is -0.156 E-score.

On to ACCAGCCC, for which the binding signal was -0.102 E-score.

For the sequence CTGCCAAA, the binding signal was -0.197 E-score.

In the case of GCCACTGA, the binding signal was 0.0969 E-score.

In the case of GATGCGGA, the binding signal was determined as 0.199 E-score.

Turning to ACAAATAC, the binding signal was 0.091 E-score.

As for GGATCCAC, the binding signal was found to be 0.317 E-score.

On to ATTTCTGC, for which the binding signal is -0.175 E-score.

For the sequence AATTCACA, the binding signal was -0.158 E-score.

ATGTTGTA: the binding signal is -0.00761 E-score.

In the case of ACACCCGG, the binding signal amounted to 0.344 E-score.

As to GCTCATTA, the binding signal was 0.0741 E-score.

As for AGAATTCG, the binding signal was -0.193 E-score.

For the sequence CCTTCCCC, the binding signal stood at 0.0255 E-score.

AACGGGCC: the binding signal is -0.244 E-score.

Consider TCATGGGA, for which the binding signal came out at 0.153 E-score.

As for GGTACCGA, the binding signal was -0.235 E-score.

For ATTGAGGA, the binding signal was -0.0505 E-score.

As for CAAACAGA, the binding signal was -0.0329 E-score.

Regarding TTTGAAAA, the binding signal was -0.236 E-score.

As for ATCGCCCG, the binding signal turned out to be 0.198 E-score.

Regarding CCGCCCGC, the binding signal is 0.0472 E-score.

Take ACCTCAGA: the binding signal is -0.0606 E-score.

In the case of CGCGACTC, the binding signal is -0.0471 E-score.

On to CCAATGTC, for which the binding signal is -0.177 E-score.

On to CCAGGGCC, for which the binding signal was -0.141 E-score.

For the sequence ACATGGCG, the binding signal is -0.0137 E-score.

Regarding ACGTTGTG, the binding signal was -0.151 E-score.

With GTGACACA, the binding signal came out at 0.0363 E-score.

As to ACTGACGC, the binding signal is -0.281 E-score.

In the case of ACATGCTG, the binding signal was -0.0537 E-score.

With CGCATGCG, the binding signal is -0.0556 E-score.

Take CTGACAAA: the binding signal was -0.19 E-score.

As for CCAAAAAG, the binding signal was -0.254 E-score.

On to CGGGACCC, for which the binding signal was -0.141 E-score.

On to TCGTTAAA, for which the binding signal was -0.217 E-score.

Consider ATGCGTCG, for which the binding signal came to 0.0188 E-score.

Regarding CATTATCC, the binding signal stood at 0.326 E-score.

As for CGCCAACA, the binding signal was -0.0312 E-score.

With CTGACACC, the binding signal amounted to 0.468 E-score.

As to AGGCTGTC, the binding signal was -0.282 E-score.

As to AGCGAACC, the binding signal was -0.18 E-score.

Regarding CGCTTCAG, the binding signal was -0.0378 E-score.
